The values that follow come from PubChem BioAssay (NCI).

Values joined by “and” are separate entries in the source; they are usually repeats but may differ in a detail not shown here. Equal entries are not always repeated.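 Each compound was tested at five concentrations against cells in 96-well plates for 48 hours. GI50 is the concentration that inhibits growth by half. At the TGI there is no net growth.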

For the test, the system named is NCI-H322M lung. Description: DTP human tumour cell line panel, 48 h.
`COC(=O)/C(=N\N)C(C(=O)C(=O)Nc1cccc([N+](=O)[O-])c1)c1nc2ccc(C(=O)c3ccccc3)cc2[nH]c1=O` (stereo not given) gave a concentration for total growth inhibition (TGI) greater than 100 µM.

Turning to `Cc1ccc(Nc2[nH]c(C(=O)c3ccc(Cl)cc3)c(N)c2C(=S)Nc2ccccc2)nc1`, the GI50 was 16.3 µM and the TGI came to 80.5 µM.

Turning to `CCCCCCCC/C=C\CCCCCCCC(=O)OC[C@]1(CO)CCC(=O)O1`, the TGI was greater than 100 µM.

As to `Cc1cc(Nc2cc(CN3CCOCC3)c3nc(C)c(Cc4ccc(Cl)cc4F)n3n2)n[nH]1`, the GI50 is 3.8 µM and the TGI came out at 14.7 µM.

As to `CN(C)CCN1C(=O)c2cccc3c(N)ccc(c23)C1=O`, the GI50 is 14 µM and the TGI was greater than 25 µM.

Molecule `Nc1nc(N)c2ncn(-c3ccc(Cl)c(Cl)c3)c2n1` came in with a TGI greater than 100 µM.

Molecule `CC(C)c1cccc(C(C)C)c1NC(=O)C(=O)CC(=O)CC(c1ccccc1)c1c(O)c2ccccc2oc1=O` (stereo not given) came in with a TGI greater than 100 µM.

Regarding `C[n+]1c2cc(N)ccc2cc2ccc(N)cc21` (tested in a mixture with another compound), the GI50 was 0.563 µM and the TGI came out at 3.06 µM.

Molecule `Cc1cc(Cl)ccc1NC(=O)C(=O)Cc1ccc([N+](=O)[O-])c([N+](=O)[O-])c1CC(=O)C(=O)Nc1ccc(Cl)cc1C` showed a total growth inhibition concentration (TGI) greater than 100 µM.

With `CN(C)c1ccc(/C=C/c2ccnc3ccc4ccccc4c23)cc1`, the concentration for total growth inhibition (TGI) is greater than 100 µM.

On to `S=c1nc[nH]c2nc[nH]c12`, for which the GI50 was 4.6 µM and 18.9 µM; the TGI is greater than 750 µM.

As to `CN(C)/N=C1\C=C2CC[C@H](O[Si](C)(C)C(C)(C)C)[C@@]2(C)CC1`, the total growth inhibition concentration (TGI) turned out to be 43.9 µM.

`COc1ccc(C2C3=C(COC3=O)OC(C)(C)Oc3cc4c(cc32)OCO4)cc1` (stereo not given) showed a total growth inhibition concentration (TGI) greater than 100 µM.

As to `O=C(N[C@@H]1C=CCC[C@@H]1c1ccccc1)OCc1ccccc1`, the TGI is 71 µM.

Take `CC1=C(C(=O)NNC(=O)C(N)=O)CC(C(=O)NNC(=O)C(N)=O)=C(C)N1`: the TGI was greater than 100 µM.

Consider `C/C(=N/NC(=S)N(C)CCc1ccccn1)c1cnccn1`, for which the TGI is 15.5 µM. This counts as double-digit micromolar.

Regarding `COc1cc(-c2cc(-c3nc4cc(Cl)c(Cl)cc4[nH]3)[nH]n2)cc(OC)c1OC`, the GI50 is 3.29 µM and the TGI was found to be 14.2 µM.

Regarding `COc1ccc(N2CCN(CN3CCN(c4ccc(OC)cc4)C3)C2)cc1`, the GI50 was greater than 100 µM and the TGI was greater than 100 µM.

Molecule `CN(CCCCN1CCCC1)CCCCN(C)C(=O)Cc1ccc(Cl)c(Cl)c1` displayed a total growth inhibition concentration (TGI) of 32.3 µM.

Turning to `COc1cc(/C=C/C(=O)NC[C@]2(O)CCC3C4CCc5cc(O)ccc5C4CCC32C)ccc1O` (stereo not given in full), the GI50 is 16.2 µM and the total growth inhibition concentration (TGI) was greater than 100 µM.

`O=c1c2[nH]c3ccccc3c2nc2n1CCS2`: the GI50 was 62 µM and the concentration for total growth inhibition (TGI) was greater than 100 µM.

`O=C1CCc2nc3ncccc3cc2C1` came in with a TGI greater than 100 µM.

The molecule `CN(C)C(=S)/N=c1\ssc(=S)n1-c1ccccc1` came in with a concentration for total growth inhibition (TGI) greater than 100 µM.

`O=S(Nc1ccccc1)c1ccc(-c2ccccc2)cc1` (stereo not given) displayed a TGI greater than 100 µM.

`c1ccc(CCCC2Sc3cccc4cccc(c34)S2)cc1`: the concentration for total growth inhibition (TGI) was greater than 100 µM.

The molecule `NC(N)=NCc1ccc2c(c1)OCO2` came in with a TGI greater than 100 µM.

As to `O=C1N(CN2CCOCC2)CN(CN2CCOCC2)C(=O)N1Cc1ccc(-c2ccc(CN3C(=O)N(CN4CCOCC4)CN(CN4CCOCC4)C3=O)cc2)cc1`, the TGI came out at 39.7 µM.

For the molecule `Cc1nc2nn(Cc3ccccc3)cc2c(=O)o1`, the TGI is greater than 100 µM.

`CC1C(/C=C/c2ccoc2)ON2CCCC12` (stereo not given): the total growth inhibition concentration (TGI) was greater than 100 µM.

Regarding `Cc1cc(C)c(S(=O)(=O)N(CCCCCCN)OCCCN)c(C)c1`, the TGI was 33.7 µM.

In the case of `COc1cc(CNc2nc3cc(N)cc(N)c3nc2-c2ccccc2)cc(OC)c1OC`, the GI50 was 3.04 µM and the TGI was 16 µM.

`CSc1c(S(C)=O)[nH]c2cc(Br)cc(Br)c12` (stereo not given): the TGI was found to be 81.6 µM.

Take `NCCn1ccc(NC(c2ccccc2)(c2ccccc2)c2ccccc2)nc1=O`: the TGI was 54.7 µM.

`O=C(Nc1ccc(Cl)cc1F)c1cc(F)ccc1O`: the GI50 was 0.751 µM and the TGI worked out at 9.6 µM.

By TGI is commonly meant the concentration giving total growth inhibition. A higher TGI goes with less potent growth arrest. What is called GI50 is the concentration that inhibits growth by half.
